The record followed here is PubChem BioAssay AID651582 (Sanford-Burnham Center for Chemical Genomics, 2012).

Each structure is given as a SMILES string. The list shows a part of the results. The main result of the screen is listed elsewhere. These columns were measured beside it and carry no call. The list favours compounds with an active or inconclusive main result.

A short description of the assay: inhibitors of triacylglycerol accumulation, primary screen, cell-based, uHTS, fluorescence, H9c2 (AID 651582). The note with it: H9c2 cells, Nile Red lipid (TAG) fluorescence; measured here:; at 12.5 µM; cells loaded with 200 µM oleic acid.
Take `C=CC[C@@H](CC(=O)N[C@H](CO)Cc1ccccc1)C(=O)N[C@H](COC(=O)[C@@H](CC=C)Cc1ccc(F)cc1)C(C)(C)C`: the DAPI nuclei signal change (viability), lower = more cytotoxic was -34.5%.

Regarding `Cc1cc(C)nc(NC(=NCCc2c[nH]c3ccccc23)NC(=O)Nc2ccc(Cl)c(Cl)c2)n1`, the DAPI nuclei signal change (viability), lower = more cytotoxic is -23.6%.

Turning to `Cc1cc(C)cc(CC(=O)N2CCC2(C)C(=O)NS(=O)(=O)c2ccc(Cl)s2)c1` (stereo not given), the DAPI nuclei signal change (viability), lower = more cytotoxic was -25.5%.

As to `N=c1n(Cc2ccc(Cl)cc2)c2ccccc2n1CC(O)COc1ccccc1` (stereo not given), the DAPI nuclei signal change (viability), lower = more cytotoxic is -21.7%.

For `CCN1C(=O)[C@H]2[C@@H](c3ccc(-c4cccc(Cl)c4)cc3)N[C@@](Cc3ccccc3)(C(=O)OC)[C@H]2C1=O`, the DAPI nuclei signal change (viability), lower = more cytotoxic was -3.78%.

On to `CN1CCCC(n2nc(Cc3ccc(Cl)cc3)c3ccccc3c2=O)CC1` (stereo not given), for which the DAPI nuclei signal change (viability), lower = more cytotoxic was -46.1%.

Take `CCc1nc2ccc(C(=O)NCc3ccc4c(c3)OCO4)cn2c1N(CCC(C)C)CCN(C)C`: the DAPI nuclei signal change (viability), lower = more cytotoxic was -44.7%.

For the compound `C[C@@]12C(=O)Nc3ccc(Br)cc3C(=O)N1[C@H]1c3cc(Cl)ccc3OC[C@@H]1[C@@H]2c1ccccc1`, the DAPI nuclei signal change (viability), lower = more cytotoxic is -15.8%.

As for `COc1ccc(-c2cc(CNc3nc(NC(C)C)nc4cc(-c5ccccc5)sc34)on2)cc1`, the DAPI nuclei signal change (viability), lower = more cytotoxic is -45.9%.

Turning to `Cc1cccc2c(C(=O)N3CCN(c4ccccc4)CC3)cc(-c3ccncc3)nc12`, the DAPI nuclei signal change (viability), lower = more cytotoxic is -25.5%.

For `CCOc1c(Cl)cc(/C=C/C(=O)N(CC)CC(=O)NCc2cccs2)cc1OC`, the DAPI nuclei signal change (viability), lower = more cytotoxic was -6.1%.

Consider `N#C/C(=C\c1cc([N+](=O)[O-])c(N2CCCCC2)cc1N1CCCCC1)c1nn(-c2ccccc2)c(N)c1C#N`, for which the DAPI nuclei signal change (viability), lower = more cytotoxic is -13.9%.

Turning to `O[C@H]1CN(CC2CCCCC2)[C@@H](c2ccc(Cl)cc2)C[C@@H]1n1cc(-c2ccc(F)cc2)nn1`, the DAPI nuclei signal change (viability), lower = more cytotoxic was found to be 4.35%.

With `O=Nc1c(-c2c(O)[nH]c3cc(Br)ccc23)[nH]c2ccccc12`, the DAPI nuclei signal change (viability), lower = more cytotoxic is -45.7%.

On to `COc1ccc(CC(N)c2csc(NC(=O)Nc3ccccc3-c3ccccc3)n2)cc1` (stereo not given), for which the DAPI nuclei signal change (viability), lower = more cytotoxic is -40.9%.

Take `O=C1CN(C(=O)Cn2ncc(Cl)c(Cl)c2=O)c2ccccc2N1`: the DAPI nuclei signal change (viability), lower = more cytotoxic is -27.4%.

As for `Cc1cccc(N2CN(S(=O)(=O)c3cccc([N+](=O)[O-])c3)c3nc4ccccc4nc32)c1`, the DAPI nuclei signal change (viability), lower = more cytotoxic came out at 3.45%.

Regarding `Oc1ccc(Nc2nc(N3CCCC3)c3ccccc3n2)cc1`, the DAPI nuclei signal change (viability), lower = more cytotoxic is -16.5%.

As to `Cc1cc(C)c2c(=N)c3ccccc3n(CCCCCCCCn3c4ccccc4c(=N)c4c(C)cc(C)nc43)c2n1`, the DAPI nuclei signal change (viability), lower = more cytotoxic worked out at 28.7%.

As for `CN(C)CCCN1c2ccccc2Sc2ccccc21`, the DAPI nuclei signal change (viability), lower = more cytotoxic was -38%.

`Cc1ccc(NC(=O)COC(=O)c2ccc3c(c2)NC(=O)C2CCCN32)cc1` (stereo not given): the DAPI nuclei signal change (viability), lower = more cytotoxic was -6.44%.

Take `CCOc1c(Br)cc(CNC2CCCCCCC2)cc1OC`: the DAPI nuclei signal change (viability), lower = more cytotoxic is -40.6%.

In the case of `CC(=O)Oc1ccc(S(=O)(=O)c2ccc(OC(C)=O)cc2)cc1`, the DAPI nuclei signal change (viability), lower = more cytotoxic was -12.9%.

Take `COCCCn1c(SCC(=O)Nc2ccc(NC(=O)c3ccco3)c(OC)c2)nc2ccccc2c1=O`: the DAPI nuclei signal change (viability), lower = more cytotoxic is -15.7%.

Consider `CCOC(=O)[C@H]1[C@H]2COc3ccc(Cl)cc3[C@@H]2N2C(=O)c3cc(OC)ccc3NC(=O)[C@@]12C`, for which the DAPI nuclei signal change (viability), lower = more cytotoxic was -11.5%.

For `O=C1OCC2=C1C(c1ccc(F)cc1)c1cc3c(cc1N2)OCCO3` (stereo not given), the DAPI nuclei signal change (viability), lower = more cytotoxic was -20.4%.

In the case of `CC1(C(=O)NCc2cccs2)Cc2c(-c3ccc4c(c3)OCO4)ccnc2O1` (stereo not given), the DAPI nuclei signal change (viability), lower = more cytotoxic is -44.1%.

In the case of `COc1ccc2[nH]cc(C(=O)CCl)c2c1`, the DAPI nuclei signal change (viability), lower = more cytotoxic was -44.3%.

With `C#CCN(C[C@H]1[C@H](OC(=O)NCCCCCC)[C@H](OC(=O)NCCCCCC)C[C@@H](C(=O)OC)[C@H]1C(=O)OC)S(=O)(=O)c1ccc(C)cc1`, the DAPI nuclei signal change (viability), lower = more cytotoxic was -10.5%.

As for `COc1cccc(-c2cc(C(=O)Nc3ccc(N(C)C(C)=O)cc3)c3cc(Br)ccc3n2)c1`, the DAPI nuclei signal change (viability), lower = more cytotoxic is -3.4%.

In the case of `CCOc1cc(CNc2ccc3c(c2)OCCO3)cc(Br)c1OCC`, the DAPI nuclei signal change (viability), lower = more cytotoxic is -15.5%.

For `Cc1cccc2sc(NC(=O)C3CCCN(S(=O)(=O)c4cccc5nonc45)C3)nc12` (stereo not given), the DAPI nuclei signal change (viability), lower = more cytotoxic turned out to be 6.61%.

Regarding `COC(=O)c1c(NC(=S)NN2CCN(C)CC2)sc2c1CCC(C)C2` (stereo not given), the DAPI nuclei signal change (viability), lower = more cytotoxic was -12.7%.

Turning to `CC1(C)CC(=O)C2=C(C1)Oc1nc3ccccc3cc1C2C(C#N)C#N` (stereo not given), the DAPI nuclei signal change (viability), lower = more cytotoxic was -41.8%.

On to `Cc1[nH]c2ccccc2c1/C=N/Nc1nc2ccccc2[nH]1`, for which the DAPI nuclei signal change (viability), lower = more cytotoxic was -17.7%.

`O=C(CC1C[C@H](C(=O)N2CCCCC2)[C@@]2(CCc3ccccc3)c3[nH]c4ccccc4c3CCN2C1=O)NCc1cccc(C(F)(F)F)c1` (stereo not given in full): the DAPI nuclei signal change (viability), lower = more cytotoxic is -20.7%.

For the compound `Cc1nc2nc(C)n(CCN3CCOCC3)c(=O)c2c(-c2cccc([N+](=O)[O-])c2)c1C(=O)CCCCCCCCCCN1CCC(c2ccccc2)(c2ccccc2)CC1`, the DAPI nuclei signal change (viability), lower = more cytotoxic is -48.7%.

As for `Cn1cc(CN2CCC(C(=O)NC(c3ccc(F)cc3)c3ccc4ccccc4n3)CC2)c2ccccc21` (stereo not given), the DAPI nuclei signal change (viability), lower = more cytotoxic was -32.7%.

In the case of `COc1cc2nc(NCCCN3CCN(C)CC3)n3nc(-c4ccccc4)nc3c2cc1OC`, the DAPI nuclei signal change (viability), lower = more cytotoxic is 86.9%.

As for `Cn1c2ccccc2c2c(C(=O)N3CCN(C(=O)c4ccco4)CC3)cn(C3CCCCC3)c(=O)c21`, the DAPI nuclei signal change (viability), lower = more cytotoxic was -15.1%.

For `COc1cccc(/C=N/NC(=O)c2cnccn2)c1O`, the DAPI nuclei signal change (viability), lower = more cytotoxic is -14.5%.

For the compound `CCOC(=O)c1[nH]c(C)c(C(=O)N2CCc3ccccc32)c1C`, the DAPI nuclei signal change (viability), lower = more cytotoxic was -30.9%.

Regarding `Brc1ccc(C2=Nn3c(nnc3-c3n[nH]c4c3CCC4)SC2)cc1`, the DAPI nuclei signal change (viability), lower = more cytotoxic was -29.9%.

For `CCOC(=O)c1c2c(n(-c3ccc(OC)cc3)c1C)C(=O)C(=O)c1ccccc1-2`, the DAPI nuclei signal change (viability), lower = more cytotoxic was -43.7%.

As to `CCCCOc1ccccc1NC(=O)Cn1c(-c2nonc2N)nc2ccccc21`, the DAPI nuclei signal change (viability), lower = more cytotoxic is -18.6%.
